Experimental data reported in the supplement of paper PMC12217912.
Some of the results follow. The full chains were built here from the parent and the listed change. Values near 0.05 are background.

B1: TEV protease; numbered along this chain (parent)
chain: MGESLFKGPRDYNPISSSICHLTNESDGHTTSLYGIGFGPFIITNKHLFRRNNGTLVVQSLHGVFKVKDTTTLQQHLVDGRDMIIIRMPKDFPPFPQKLKFREPQREERICLVTTNFQTKSMSSMVSDTSCTFPSGDGIFWKHWIQTKDGQCGSPLVSTRDGFIVGIHSASNFTNTNNYFTSVPKNFMELLTNQEAQQWVSGWRLNADSVLWGGHKVFMVKPEEPFQPVKEATQL

Variants of: B1
Assay: raw area under fraction-flipped curve 0-4 h after induction (AUC4h, not background-subtracted), DNA-recorder readout of cleavage of the substrate (dimensionless); higher = more cleavage of the substrate by the protease variant
Settings: temperature: 34 °C; time window: 0-4 h after rhamnose induction
Procedure: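 In vivo DNA recorder in E. coli TOP10(DE3) ΔrhaA at 34 °C. Each TEVp single-site mutant (parent TEVp 0) is paired with a single-site variant of the 7-mer TEVs (canonical ENLYFQ|S). The substrate sits between flexible linkers in a Bxb1-sfGFP-TEVs-SsrA fusion, so cleavage stabilises Bxb1 and speeds flipping of a recombination array, read by NGS. The value is the raw area under the fraction-flipped curve over 0-4 h after rhamnose induction (AUC4h), with ≥20 reads per time point. It is not background-subtracted; inactive controls average about 0.047.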
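Further: Bxb1 expression induced with 0.2% (w/v) L-rhamnose at OD600 near 0.5, cultures sampled hourly, flipped fraction per protease–substrate barcode pair counted by paired-end Illumina sequencing.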

Variant | area with substrate ENLYAQS | area with substrate ENLYCQS | area with substrate ENLYEQS | area with substrate ENLYGQS | area with substrate ENLYHQS | area with substrate ENLYKQS | area with substrate ENLYLQS | area with substrate ENLYMQS | area with substrate ENLYNQS | area with substrate ENLYPQS | area with substrate ENLYQQS | area with substrate ENLYRQS | area with substrate ENLYSQS | area with substrate ENLYWQS | area with substrate ENLYDQS | area with substrate ENLYIQS | area with substrate ENLYTQS | area with substrate ENLYVQS | area with substrate ENLYYQS
P104S | 0.0646 | 0.0644 | 0.0619 | 0.0411 | 0.0465 | 0.0499 | 0.0583 | 0.0469 | 0.0514 | 0.0557 | 0.0558 | 0.0568 | 0.0396 | 0.0345 | – | – | – | – | –
L112T | 0.0531 | 0.0316 | 0.062 | 0.052 | 0.0514 | – | – | 0.0605 | 0.0504 | 0.0612 | 0.0716 | 0.0559 | 0.0657 | – | 0.0521 | 0.0801 | 0.0835 | 0.0605 | 0.0583
L112A | 0.048 | 0.0744 | 0.0522 | 0.0607 | 0.0693 | 0.0477 | – | 0.0741 | 0.0637 | 0.0585 | 0.0547 | – | – | – | 0.0592 | 0.0967 | 0.0596 | 0.079 | 0.0649
L112K | 0.0707 | – | 0.0643 | 0.0517 | 0.0653 | – | 0.0632 | 0.0719 | 0.0584 | 0.0604 | 0.0591 | 0.0632 | 0.0818 | – | 0.0665 | 0.136 | 0.0717 | 0.103 | 0.0606
F117L | 0.0713 | 0.0948 | 0.0682 | – | 0.078 | 0.0589 | 0.0841 | 0.0972 | – | 0.0796 | 0.0583 | 0.0784 | – | – | – | – | – | – | 0.0507
V165C | 0.071 | – | 0.0625 | – | 0.0651 | 0.0764 | – | 0.0732 | 0.0745 | – | 0.06 | – | 0.0477 | – | 0.0579 | 0.128 | – | 0.117 | 0.0536
I167G | 0.051 | – | 0.0688 | 0.0343 | 0.0517 | 0.0391 | – | 0.0425 | – | – | – | – | 0.0491 | – | 0.0623 | – | 0.0401 | 0.0501 | –
P155Q | 0.0522 | 0.0432 | 0.0535 | 0.0537 | 0.0585 | 0.0521 | 0.0437 | 0.0501 | 0.0491 | 0.0414 | 0.055 | 0.0518 | 0.0557 | 0.0527 | 0.049 | 0.0539 | 0.0541 | 0.0592 | 0.0427
G150N | 0.0679 | – | – | 0.0408 | 0.0569 | 0.0531 | – | 0.0527 | 0.067 | 0.057 | 0.0686 | 0.0505 | 0.05 | 0.0614 | – | 0.0968 | – | – | 0.0603
G150T | 0.0539 | 0.0918 | 0.063 | 0.0638 | 0.0683 | 0.0593 | 0.0661 | 0.0573 | 0.0572 | 0.0506 | 0.0594 | 0.0625 | 0.0591 | 0.0576 | 0.059 | 0.0622 | 0.0587 | 0.0526 | 0.0726
G150C | 0.0534 | 0.0596 | 0.0535 | 0.0559 | 0.0609 | 0.0388 | – | 0.0583 | 0.0607 | 0.0588 | 0.0586 | – | 0.0622 | 0.0628 | 0.0677 | 0.0538 | – | 0.0692 | 0.0536
D128Q | 0.0845 | 0.11 | 0.0725 | 0.0601 | 0.0824 | 0.0275 | – | 0.0919 | 0.0819 | 0.0773 | 0.0365 | 0.0611 | 0.114 | 0.0976 | 0.0687 | – | – | – | 0.119
